# Assay results published in the supplement of paper PMC8728848.
# This is one part of the list.
# What was measured:
# Experiment in all cases: glycan array binding signal (z-score within array); higher = stronger binding
# Conditions in all cases: glycan notation: IUPAC condensed, linker removed
# [1] = target: Gal(b1-3)GlcNAc(b1-6)[Gal(b1-3)]GalNAc
# Procedure, shortened: (§1)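 The Consortium for Functional Glycomics database supplied 3228 glycan arrays, of which those lacking an available protein sequence were dropped. The binding signal, a within-array Z-score, was averaged across arrays of the same protein sequence and across linkers. Negative scores can be read as non-binding.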
# [2] = target: Gal(b1-3)GlcNAc6S
# Procedure, shortened: as §1
# [3] = target: Gal(b1-3)[Fuc(a1-4)]GlcNAc
# Procedure, shortened: as §1
# [4] = target: Gal(b1-3)[Fuc(a1-4)]GlcNAc(b1-2)Man
# Procedure, shortened: as §1
# [5] = target: Gal(b1-3)[Fuc(a1-4)]GlcNAc(b1-2)Man(a1-3)[Gal(b1-3)[Fuc(a1-4)]GlcNAc(b1-2)Man(a1-6)]Man(b1-4)GlcNAc(b1-4)[Fuc(a1-6)]GlcNAc
# Procedure, shortened: as §1
# [6] = target: Gal(b1-3)[Fuc(a1-4)]GlcNAc(b1-3)Gal(b1-3)[Fuc(a1-4)]GlcNAc
# Procedure, shortened: as §1
# [7] = target: Gal(b1-3)[Fuc(a1-4)]GlcNAc(b1-3)Gal(b1-4)[Fuc(a1-3)]GlcNAc
# Procedure, shortened: as §1
# [8] = target: Gal(b1-3)[Fuc(a1-4)]GlcNAc(b1-6)GalNAc
# Procedure, shortened: as §1
# [9] = target: Gal(b1-3)[GlcNAc(b1-6)]GalNAc
# Procedure, shortened: as §1
# [10] = target: Gal(b1-3)[Neu5Ac(a2-6)]GalNAc
# Procedure, shortened: as §1
# [11] = target: Gal(b1-3)[Neu5Ac(a2-6)]GlcNAc(b1-4)Gal(b1-4)Glc
# Procedure, shortened: as §1
# [12] = target: Gal(b1-3)[Neu5Ac(b2-6)]GalNAc
# Procedure, shortened: as §1
# [13] = target: Gal(b1-4)Gal
# Procedure, shortened: as §1
# [14] = target: Gal(b1-4)GalNAc(a1-3)[Fuc(a1-2)]Gal(b1-4)GlcNAc
# Procedure, shortened: as §1
# [15] = target: Gal(b1-4)GalNAc(b1-3)[Fuc(a1-2)]Gal(b1-4)GlcNAc
# Procedure, shortened: as §1
# [16] = target: Gal(b1-4)Glc
# Procedure, shortened: as §1
# [17] = target: Gal(b1-4)Glc6S
# Procedure, shortened: as §1
# [18] = target: Gal(b1-4)GlcNAc
# Procedure, shortened: as §1
# [19] = target: Gal(b1-4)GlcNAc(a1-6)Gal(b1-4)GlcNAc
# Procedure, shortened: as §1
# [20] = target: Gal(b1-4)GlcNAc(b1-2)Man
# Procedure, shortened: as §1
# [21] = target: Gal(b1-4)GlcNAc(b1-2)Man(a1-3)Man(b1-4)GlcNAc(b1-4)GlcNAc
# Procedure, shortened: as §1
# [22] = target: Gal(b1-4)GlcNAc(b1-2)Man(a1-3)[Gal(b1-4)GlcNAc(b1-2)Man(a1-6)]Man(b1-4)GlcNAc(b1-4)GlcNAc
# Procedure, shortened: as §1
# [23] = target: Gal(b1-4)GlcNAc(b1-2)Man(a1-3)[Gal(b1-4)GlcNAc(b1-2)Man(a1-6)]Man(b1-4)GlcNAc(b1-4)[Fuc(a1-6)]GlcNAc
# Procedure, shortened: as §1
# [24] = target: Gal(b1-4)GlcNAc(b1-2)Man(a1-3)[Gal(b1-4)GlcNAc(b1-2)Man(a1-6)][Gal(b1-4)GlcNAc(b1-4)]Man(b1-4)GlcNAc(b1-4)[Fuc(a1-6)]GlcNAc
# Procedure, shortened: as §1
# [25] = target: Gal(b1-4)GlcNAc(b1-2)Man(a1-3)[Gal(b1-4)GlcNAc(b1-2)Man(a1-6)][GlcNAc(b1-4)]Man(b1-4)GlcNAc(b1-4)[Fuc(a1-6)]GlcNAc
# Procedure, shortened: as §1
# [26] = target: Gal(b1-4)GlcNAc(b1-2)Man(a1-3)[GlcNAc(b1-2)Man(a1-6)]Man(b1-4)GlcNAc(b1-4)GlcNAc
# Procedure, shortened: as §1
# [27] = target: Gal(b1-4)GlcNAc(b1-2)Man(a1-3)[GlcNAc(b1-4)][Gal(b1-4)GlcNAc(b1-2)Man(a1-6)]Man(b1-4)GlcNAc(b1-4)GlcNAc
# Procedure, shortened: as §1
# [28] = target: Gal(b1-4)GlcNAc(b1-2)Man(a1-3)[Man(a1-6)]Man(b1-4)GlcNAc(b1-4)GlcNAc
# Procedure, shortened: as §1
# [29] = target: Gal(b1-4)GlcNAc(b1-2)Man(a1-6)Man(b1-4)GlcNAc(b1-4)GlcNAc
# Procedure, shortened: as §1
# [30] = target: Gal(b1-4)GlcNAc(b1-2)Man(a1-6)[GlcNAc(b1-2)Man(a1-3)]Man(b1-4)GlcNAc(b1-4)GlcNAc
# Procedure, shortened: as §1
# [31] = target: Gal(b1-4)GlcNAc(b1-2)Man(a1-6)[Man(a1-3)]Man(b1-4)GlcNAc(b1-4)GlcNAc
# Procedure, shortened: as §1
# [32] = target: Gal(b1-4)GlcNAc(b1-2)[Gal(b1-4)GlcNAc(b1-4)]Man(a1-3)[Gal(b1-4)GlcNAc(b1-2)Man(a1-6)]Man(b1-4)GlcNAc(b1-4)GlcNAc
# Procedure, shortened: as §1
# [33] = target: Gal(b1-4)GlcNAc(b1-2)[Gal(b1-4)GlcNAc(b1-4)]Man(a1-3)[Gal(b1-4)GlcNAc(b1-2)[Gal(b1-4)GlcNAc(b1-6)]Man(a1-6)]Man(b1-4)GlcNAc(b1-4)GlcNAc
# Procedure, shortened: as §1
# [34] = target: Gal(b1-4)GlcNAc(b1-2)[Gal(b1-4)GlcNAc(b1-4)]Man(a1-3)[GlcNAc(b1-4)][Gal(b1-4)GlcNAc(b1-2)Man(a1-6)]Man(b1-4)GlcNAc(b1-4)GlcNAc
# Procedure, shortened: as §1
# [35] = target: Gal(b1-4)GlcNAc(b1-2)[Gal(b1-4)GlcNAc(b1-4)]Man(a1-3)[GlcNAc(b1-4)][Gal(b1-4)GlcNAc(b1-2)[Gal(b1-4)GlcNAc(b1-6)]Man(a1-6)]Man(b1-4)GlcNAc(b1-4)GlcNAc
# Procedure, shortened: as §1
# [36] = target: Gal(b1-4)GlcNAc(b1-2)[Gal(b1-4)GlcNAc(b1-6)]Man(a1-6)[Gal(b1-4)GlcNAc(b1-2)Man(a1-3)]Man(b1-4)GlcNAc(b1-4)GlcNAc
# Procedure, shortened: as §1
# [37] = target: Gal(b1-4)GlcNAc(b1-2)[Gal(b1-4)GlcNAc(b1-6)]Man(a1-6)[Gal(b1-4)GlcNAc(b1-2)Man(a1-3)]Man(b1-4)GlcNAc(b1-4)[Fuc(a1-6)]GlcNAc
# Procedure, shortened: as §1
# [38] = target: Gal(b1-4)GlcNAc(b1-2)[Gal(b1-4)GlcNAc(b1-6)]Man(a1-6)[GlcNAc(b1-4)][Gal(b1-4)GlcNAc(b1-2)Man(a1-3)]Man(b1-4)GlcNAc(b1-4)GlcNAc
# Procedure, shortened: as §1
# [39] = target: Gal(b1-4)GlcNAc(b1-2)[Gal(b1-4)GlcNAc(b1-6)]Man(a1-6)[GlcNAc(b1-4)][Gal(b1-4)GlcNAc(b1-2)[Gal(b1-4)GlcNAc(b1-4)]Man(a1-3)]Man(b1-4)GlcNAc(b1-4)[Fuc(a1-6)]GlcNAc
# Procedure, shortened: as §1
# [40] = target: Gal(b1-4)GlcNAc(b1-3)Gal(b1-3)GalNAc
# Procedure, shortened: as §1
# [41] = target: Gal(b1-4)GlcNAc(b1-3)Gal(b1-3)GlcNAc
# Procedure, shortened: as §1
# [42] = target: Gal(b1-4)GlcNAc(b1-3)Gal(b1-4)Glc
# Procedure, shortened: as §1
# [43] = target: Gal(b1-4)GlcNAc(b1-3)Gal(b1-4)GlcNAc
# Procedure, shortened: as §1
# [44] = target: Gal(b1-4)GlcNAc(b1-3)Gal(b1-4)GlcNAc(b1-2)Man(a1-3)[Gal(b1-4)GlcNAc(b1-3)Gal(b1-4)GlcNAc(b1-2)Man(a1-6)]Man(b1-4)GlcNAc(b1-4)GlcNAc
# Procedure, shortened: as §1
# [45] = target: Gal(b1-4)GlcNAc(b1-3)Gal(b1-4)GlcNAc(b1-2)Man(a1-3)[Gal(b1-4)GlcNAc(b1-3)Gal(b1-4)GlcNAc(b1-2)Man(a1-6)]Man(b1-4)GlcNAc(b1-4)[Fuc(a1-6)]GlcNAc
# Procedure, shortened: as §1
binder,measurement,setting,value
SBD-G4S3-SBD (protein) MASIPSSASVQLDSYNYDGSTFSGKIYVKNIAYSKKVTVVYADGSDNWNNNGNIIAASFSGPISGSNYEYWTFSASVKGIKEFYIKYEVSGKTYYDNNNSANYQVSTGGGGSGGGGSGGGGSEFASIPSSASVQLDSYNYDGSTFSGKIYVKNIAYSKKVTVVYADGSDNWNNNGNIIAASFSGPISGSNYEYWTFSASVKGIKEFYIKYEVSGKTYYDNNNSANYQVST,glycan array binding signal (z-score),[1],-0.012
same,glycan array binding signal (z-score),[2],-0.404
same,glycan array binding signal (z-score),[3],-0.4
same,glycan array binding signal (z-score),[4],-0.157
same,glycan array binding signal (z-score),[5],0.242
same,glycan array binding signal (z-score),[6],-0.367
same,glycan array binding signal (z-score),[7],-0.396
same,glycan array binding signal (z-score),[8],4.38
same,glycan array binding signal (z-score),[9],-0.371
same,glycan array binding signal (z-score),[10],-0.416
same,glycan array binding signal (z-score),[11],-0.092
same,glycan array binding signal (z-score),[12],-0.425
same,glycan array binding signal (z-score),[13],3.02
same,glycan array binding signal (z-score),[14],0.23
same,glycan array binding signal (z-score),[15],-0.41
same,glycan array binding signal (z-score),[16],-0.301
same,glycan array binding signal (z-score),[17],0.178
same,glycan array binding signal (z-score),[18],-0.361
same,glycan array binding signal (z-score),[19],-0.002
same,glycan array binding signal (z-score),[20],-0.298
same,glycan array binding signal (z-score),[21],0.338
same,glycan array binding signal (z-score),[22],-0.028
same,glycan array binding signal (z-score),[23],-0.131
same,glycan array binding signal (z-score),[24],1.85
same,glycan array binding signal (z-score),[25],-0.191
same,glycan array binding signal (z-score),[26],0.022
same,glycan array binding signal (z-score),[27],-0.082
same,glycan array binding signal (z-score),[28],-0.387
same,glycan array binding signal (z-score),[29],-0.339
same,glycan array binding signal (z-score),[30],0.412
same,glycan array binding signal (z-score),[31],1.01
same,glycan array binding signal (z-score),[32],-0.267
same,glycan array binding signal (z-score),[33],0.758
same,glycan array binding signal (z-score),[34],0.111
same,glycan array binding signal (z-score),[35],1.8
same,glycan array binding signal (z-score),[36],1.55
same,glycan array binding signal (z-score),[37],4.53
same,glycan array binding signal (z-score),[38],0.505
same,glycan array binding signal (z-score),[39],-0.285
same,glycan array binding signal (z-score),[40],-0.052
same,glycan array binding signal (z-score),[41],1.25
same,glycan array binding signal (z-score),[42],-0.301
same,glycan array binding signal (z-score),[43],-0.394
same,glycan array binding signal (z-score),[44],0.379
same,glycan array binding signal (z-score),[45],2.59
